Converted amounts (≈) assume the structure as drawn. Like-named read-outs stand apart in the source and are kept apart here.
Key:
influenza virus A/WSN = format: in vivo, ICR mice; conditions: one hour after infection, 15 days after infection
influenza virus B/GL = format: in vivo, ICR female mice; conditions: oral, one hour after infection, 15 days after infection
Vesicular stomatitis = assay: microbe, parasite or virus in culture; format: cell-based; conditions: read-out: Minimum Inhibitory Concentration
Influenza A2 = assay: microbe, parasite or virus in culture; format: cell-based; conditions: read-out: Minimum Inhibitory Concentration
Respiratory virus = assay: Antiviral activity in cultured cells (inhibition of cytopathic effect); format: cell-based; conditions: Virus I = Respiratory virus; complete inhibition of cytopathic effect by 100 TCID50; read-out: Minimum Inhibitory Concentration

NC12CC3CC(CC(C3)C1)C2 [Amantadine, reference compound]
Survival rate (influenza virus A/WSN; intraperitoneal, 100 mg/Kg): 40% | Survival rate (influenza virus A/WSN; oral, 300 mg/Kg): 40% | Survival rate (influenza virus B/GL; dosage 300 mb/kg): 30%

CNS(=O)(=O)c1cc(C(=O)O)ccc1Cl [Compound 1, 4-chloro-3-methylamino-sulfonylbenzoic acid]
MIC (Vesicular stomatitis): 300 µg/mL (≈ 1200 µM) | MIC (Influenza A2): 300 µg/mL (≈ 1200 µM)

CCNS(=O)(=O)c1cc(C(=O)O)ccc1Cl [Compound 2, 4-chloro-3-ethylamino-sulfonylbenzoic acid]
MIC (Respiratory virus): 100 µg/mL (≈ 379 µM) | MIC (Vesicular stomatitis): 300 µg/mL (≈ 1140 µM) | MIC (Influenza A2): 300 µg/mL (≈ 1140 µM)

CN(C)S(=O)(=O)c1cc(C(=O)O)ccc1Cl [Compound 3, 4-chloro-3-dimethyl-aminosulfonylbenzoic acid]
MIC (Vesicular stomatitis): 300 µg/mL (≈ 1140 µM) | MIC (Influenza A2): 300 µg/mL (≈ 1140 µM)

CC(C)NS(=O)(=O)c1cc(C(=O)O)ccc1Cl [Compound 4, 4-chloro-3-isopropyl-aminoslfonylbenzoic acid]
MIC (Vesicular stomatitis): 300 µg/mL (≈ 1080 µM) | MIC (Influenza A2): 300 µg/mL (≈ 1080 µM)

O=C(O)c1ccc(Cl)c(S(=O)(=O)Nc2ccccc2)c1 [Compound 5, 3-anilinosulfonyl-4-chlorobenzoic acid]
MIC (Vesicular stomatitis): 300 µg/mL (≈ 962 µM) | MIC (Influenza A2): 300 µg/mL (≈ 962 µM)

O=C(O)c1ccc(Cl)c(S(=O)(=O)N2CCOCC2)c1 [Compound 6, 4-chloro-3-morpholino-sulfonylbenzoic acid]
MIC (Vesicular stomatitis): 300 µg/mL (≈ 981 µM) | MIC (Influenza A2): 300 µg/mL (≈ 981 µM)

NS(=O)(=O)c1cc(C(=O)O)c(Cl)cc1Cl [Compound 7, 5-aminosulfonyl-2,4-dichlorobenzoic acid]
MIC (Respiratory virus): 30 µg/mL (≈ 111 µM) | MIC (Vesicular stomatitis): 100 µg/mL (≈ 370 µM) | MIC (Influenza A2): 300 µg/mL (≈ 1110 µM)

COC(=O)c1ccc(F)c(S(N)(=O)=O)c1 [Compound 8, 3-aminosulfonyl-4-fluoromethylbenzoate]
Survival rate (influenza virus A/WSN; intraperitoneal, 30 mg/Kg): 40% | Survival rate (influenza virus A/WSN; intraperitoneal, 100 mg/Kg): 50%

CC(C)OC(=O)c1ccc(Br)c(S(N)(=O)=O)c1 [Compound 9, 3-aminosulfonyl-4-bromo-isopropylbenzoate]
Survival rate (influenza virus B/GL; dosage 100 mb/kg): 30% | Survival rate (influenza virus B/GL; dosage 300 mb/kg): 40%

CCCCOC(=O)c1ccc(Br)c(S(N)(=O)=O)c1 [Compound 10, 3-aminosulfonyl-4-bromo-n-butylbenzoate]
Survival rate (influenza virus A/WSN; intraperitoneal, 10 mg/Kg): 50% | Survival rate (influenza virus A/WSN; intraperitoneal, 30 mg/Kg): 70% | Survival rate (influenza virus A/WSN; oral, 30 mg/Kg): 50% | Survival rate (influenza virus A/WSN; oral, 100 mg/Kg): 60% | Survival rate (influenza virus B/GL; dosage 30 mb/kg): 60% | Survival rate (influenza virus B/GL; dosage 300 mb/kg): 70%

C=CCOC(=O)c1cc(S(N)(=O)=O)c(Cl)cc1Cl [Compound 11, 5-aminosulfonyl-2,4-dichloro-allylbenzoate]
Survival rate (influenza virus A/WSN; intraperitoneal, 30 mg/Kg): 30% | Survival rate (influenza virus A/WSN; intraperitoneal, 100 mg/Kg): 40%

— patent EP0132540A1 (priority 1981, dated 1983)
